As usually defined, the inhibition is the relative decrease from the control value, in per cent.

Inhibition data for 69 molecules are collected here from PubChem BioAssay AID1362 (SRMLSC, 2008).

This is one part of the list. Further columns of the screen follow, without active or inactive calls. Compounds called inactive in the main read-out are mostly missing here.

A short description of this test: growth inhibition of WT strain, primary screen, mitochondrial fusion inhibitor project, WT and mutant strains, chemical genetic (AID 1362). Note: tested in S. cerevisiae. The settings on record: mitochondrial fusion phenotypic screen, at 10 µM.
As to `CCOC(=O)COc1ccccc1/C=C\[N+](=O)[O-]`, the inhibition was found to be 37.9%.
Turning to `Cc1ccc(-c2cc(C(=O)N3N=C(C(F)F)CC3(O)C(F)F)c3ccccc3n2)cc1C` (centres undefined), the inhibition was found to be 86.3%.
On to `O=C(NCC1CCCO1)C1CCC(=O)N1Cc1ccccc1Cl` (centres undefined), for which the inhibition is 10.2%.
Take `CC(C)N(Cc1nc(-c2ccccc2)no1)C(=O)C(Cl)(Cl)Cl`: the inhibition stood at 43.5%.
`O=C1C=C(Nc2ccc(Cl)cc2)CC(c2ccc(Cl)cc2)C1` (centres undefined): the inhibition turned out to be 38%.
As for `N#C/C(=C\Nc1ccccc1O)c1nc2ccccc2o1`, the inhibition was found to be 29.2%.
Consider `Cc1ccc(Oc2cc([N+](=O)[O-])cc3c2C(=O)Nc2ccccc2O3)cc1`, for which the inhibition is 20.2%.
With `Cc1cc(C)c(OCC(=O)Nc2nnc(-c3ccco3)o2)c(C)c1`, the inhibition turned out to be 4.48%.
For the molecule `O=C(O)CCc1ccc(-c2ccc(F)cc2)n1Cc1ccco1`, the inhibition was 3.57%.
Consider `Cc1ccc2nc(NC(=O)C3CCCN(S(=O)(=O)c4cccc5nsnc45)C3)sc2c1` (centres undefined), for which the inhibition is 27.9%.
With `CCn1ccnc1CN1CCc2c([nH]c3ccccc23)C1C1CCCCC1` (centres undefined), the inhibition worked out at 13.4%.
Next, `CCn1c(C(=O)N2CCc3ccccc3C2)cc2oc3ccccc3c21`: 26.8%; `CC(C)(C)NC(=S)Nc1ccc(Nc2ccccc2)cc1`: 34%; `Cc1ccnc(Nc2nc(-c3c(C)nc4sccn34)cs2)c1`: 74.4%.
Take `Brc1ccccc1/C=N/Nc1ccc2ccccc2n1`: the inhibition was 51.4%.
For `Cc1ccc(C2(c3ccc(C)cc3)CC2C(=O)Nc2ccc([N+](=O)[O-])cc2O)cc1` (centres undefined), the inhibition came out at 75.7%.
Next, `C[C@@H](C[C@@H](O)[C@H](O)C(C)(C)O)[C@@H]1CC[C@]2(C)C3=CC[C@H]4C(C)(C)C(=O)CC[C@]4(C)[C@H]3CC[C@@]12C`: -20%.
Next, `Cc1noc(C)c1S(=O)(=O)N(CCc1ccccc1)Cc1ccccc1`: 19.7%; `CCC(C)c1ccc(NC(=S)NCc2ccccc2OC)cc1` (centres undefined): 47.2%; `Cc1cc(NC(=S)Nc2ccc(C)c(Cl)c2)n[nH]1`: 71%.
As for `COc1cccc(-c2nc(N3CCCCC3C)c3ccccc3n2)c1O` (centres undefined), the inhibition turned out to be 31.4%.
In the case of `O=C1CCCCC1C(Nc1ccc(Br)cc1)c1ccccc1` (centres undefined), the inhibition is -3.07%.
Take `C=CCNC1=C(Cl)C(=O)N(c2cccc(Cl)c2Cl)C1=O`: the inhibition was 2.59%.
As for `O=[N+]([O-])c1cccc(-c2csc(N/N=C/c3cccc(O)c3)n2)c1`, the inhibition amounted to 63.8%.
With `Oc1ccccc1/C=N/Nc1cc(N2CCCC2)nc(N2CCCC2)n1`, the inhibition was 38.8%.
Next, `Cc1cc(NCCCn2ccnc2)n2nc(C)c(-c3ccc(Cl)cc3)c2n1`: 25.3%; `C=CCn1c(-c2cc3c(s2)CCC(CC)C3)n[nH]c1=S` (centres undefined): 48.9%.
As for `N/C(=N\OC(=O)c1cccc2ccccc12)c1ccc(Br)cc1`, the inhibition stood at 64.1%.
As for `N/C(=N\OC(=O)C(c1ccccc1)c1ccccc1)c1cccnc1`, the inhibition stood at 67.7%.
Take `COc1nc(SC)nc(Cl)c1Cc1ccc(OC(C)C)cc1`: the inhibition is -9.54%.
With `CC(=O)/C(=C/Nc1ccc(Oc2ccccc2)cc1)c1ccccc1`, the inhibition is 33.9%.
Take `Cc1cccc(NC(=O)c2ccc(COc3ccc(Cl)cc3Cl)o2)n1`: the inhibition was found to be 34.4%.
As to `CC(C)(c1ccccc1)c1ccc(OCCCNCCO)cc1`, the inhibition was found to be 85.1%.
Next, `O=C(c1ccc2c(c1)OCO2)N(Cc1ccco1)C1(C(=O)NC2CCCCC2)CCCCC1`: 7.04%; `c1csc(-c2csc3nc(CN4CCOCC4)nc(NCc4ccc5c(c4)OCO5)c23)c1`: 23.8%; `CCOC(=O)c1cnc(SC)nc1Sc1ccccc1Cl`: 23.2%.
With `O=C1C=CC(=O)N1CCNc1ncc(C(F)(F)F)cc1Cl`, the inhibition was found to be 95.1%.
Consider `FC(F)(F)c1ccc(CSc2nccn2-c2ccccc2)cc1`, for which the inhibition came out at 51.8%.
As for `Cc1ccc(Cl)cc1N1CCN(Cc2nnnn2C2CCCCC2)CC1`, the inhibition is 36.1%.
Next, `CC1(C)CC(=O)C(C=Nc2ccc3[nH]ncc3c2)=C(O)C1`: 34%; `CN(Cc1ccccc1)c1nc(CN2CCOCC2)nc2scc(-c3ccccc3)c12`: 36.7%.
For the molecule `Cc1ccc(CN=c2c([N+](=O)[O-])nn(-c3cccc(Cl)c3)n2O)cc1`, the inhibition amounted to 58.9%.
As for `CCOC(=O)C1=C(C)NC(SC(C)=O)=NC1c1ccc(OC(C)=O)c(OC)c1` (centres undefined), the inhibition is 21.4%.
With `Cc1ccc(C2CCN(C(=S)Nc3cccc(C)c3)C2)cc1` (centres undefined), the inhibition came out at 59.9%.
Consider `Cc1cc(-c2ccccc2)nc(-c2ccccc2)c1C`, for which the inhibition amounted to 52.2%.
On to `O=C(Nc1cc(Cl)cc(Cl)c1)C(c1ccccc1)N1CCCCC1` (centres undefined), for which the inhibition was 24.3%.
For the molecule `O=C1NCCc2c1[nH]c1c(Cl)ccc(Cl)c21`, the inhibition came out at 4.49%.
`CCc1nc(SCc2nc3ccccc3[nH]2)c2oc3ccccc3c2n1`: the inhibition was found to be 73.9%.
`COc1ccc(NC(=S)NCCSc2ccc(Cl)cc2)c(OC)c1`: the inhibition stood at 50.1%.
Regarding `O=C(N/N=C/C=C/c1ccccc1)C1CC1c1ccccc1` (centres undefined), the inhibition was determined as 1.76%.
For the molecule `O=C(C1=C(O)/C(=C/c2ccc(O)cc2)CCC1)C(F)(F)F`, the inhibition is 43.8%.
Consider `Cc1ccc(SCC(=O)O/N=C(\N)c2cccc([N+](=O)[O-])c2)cc1`, for which the inhibition is -14.9%.
Next, `Oc1ccc(/C=C/c2nc(-c3ccccc3O)n(-c3ccccc3)n2)cc1`: 58.3%; `Cc1ccc(/C=[N+](\[O-])c2ccc(N(C)C)cc2)c2nsnc12`: 65.1%; `Cc1nc(-c2cccc(NS(=O)(=O)c3cccc4ccccc34)c2)cs1`: -27.6%.
Consider `O=C(NC(=S)N1CCN(c2c(Cl)cccc2[N+](=O)[O-])CC1)c1cccs1`, for which the inhibition was 61.6%.
Next, `O=C(c1cccc(COc2ccc(Cl)cc2Cl)c1)N1CCN(c2ccccn2)CC1`: 59%; `O=C1c2ccccc2CC1(Cc1ccccc1)Cc1ccccc1`: 54.9%.
Turning to `O=C1CCc2ccc(OCCCCN3CCN(c4cccc(Cl)c4Cl)CC3)cc2N1`, the inhibition turned out to be 81.8%.
Turning to `COc1ccc2oc(=O)c(-c3csc(Nc4cccc(O)c4)n3)cc2c1`, the inhibition was 53.9%.
Take `COC(=O)N/N=C/c1cn(Cc2c(Cl)cccc2Cl)c2ccccc12`: the inhibition is 25.9%.
As to `CSc1nc(Sc2cccc(Cl)c2)c2ccccc2n1`, the inhibition came to 9.53%.
Turning to `CCOC(=O)c1cc2c(ccn2C)n1Cc1ccccc1Cl`, the inhibition came out at 42.3%.
On to `COC(=O)C1=C(O)/C(=C\c2ccc(CNC(=O)C(=O)Nc3ccc(C)cc3)o2)N=C1C`, for which the inhibition was found to be 5.58%.
`COc1ccc(O[C@H]2C=C[C@@H](c3ccccc3)O[C@@H]2COC(=O)CC/C(C)=N/O[C@@H](C)CN2CCCCc3nc(C)c(C)cc32)cc1`: the inhibition stood at 1.19%.
In the case of `CCCCCOC(=O)c1ccc(NC(=O)c2ccco2)cc1`, the inhibition was 0.8%.
Turning to `C=CCc1cccc(CNc2nc3ccccc3n2CCC)c1O`, the inhibition was 32.4%.
On to `COc1ccc(C2CC(c3ccccc3)=NN2c2ccc(S(N)(=O)=O)cc2)cc1` (centres undefined), for which the inhibition stood at 24.3%.
Next, `COc1ccc(N2CCN(C(=O)CC34CC5CC(CC(C5)C3)C4)CC2)c([N+](=O)[O-])c1`: 20.5%.
